Ten molecules from publication PMC7979705 can be followed below.

Protein sequences, listed by entry. Tags and fused reporters are not part of them. Lines headed by an entry give the natural chain unless they say otherwise; changes in a name come on top. Residues count along the entry.
UniProt Q09472: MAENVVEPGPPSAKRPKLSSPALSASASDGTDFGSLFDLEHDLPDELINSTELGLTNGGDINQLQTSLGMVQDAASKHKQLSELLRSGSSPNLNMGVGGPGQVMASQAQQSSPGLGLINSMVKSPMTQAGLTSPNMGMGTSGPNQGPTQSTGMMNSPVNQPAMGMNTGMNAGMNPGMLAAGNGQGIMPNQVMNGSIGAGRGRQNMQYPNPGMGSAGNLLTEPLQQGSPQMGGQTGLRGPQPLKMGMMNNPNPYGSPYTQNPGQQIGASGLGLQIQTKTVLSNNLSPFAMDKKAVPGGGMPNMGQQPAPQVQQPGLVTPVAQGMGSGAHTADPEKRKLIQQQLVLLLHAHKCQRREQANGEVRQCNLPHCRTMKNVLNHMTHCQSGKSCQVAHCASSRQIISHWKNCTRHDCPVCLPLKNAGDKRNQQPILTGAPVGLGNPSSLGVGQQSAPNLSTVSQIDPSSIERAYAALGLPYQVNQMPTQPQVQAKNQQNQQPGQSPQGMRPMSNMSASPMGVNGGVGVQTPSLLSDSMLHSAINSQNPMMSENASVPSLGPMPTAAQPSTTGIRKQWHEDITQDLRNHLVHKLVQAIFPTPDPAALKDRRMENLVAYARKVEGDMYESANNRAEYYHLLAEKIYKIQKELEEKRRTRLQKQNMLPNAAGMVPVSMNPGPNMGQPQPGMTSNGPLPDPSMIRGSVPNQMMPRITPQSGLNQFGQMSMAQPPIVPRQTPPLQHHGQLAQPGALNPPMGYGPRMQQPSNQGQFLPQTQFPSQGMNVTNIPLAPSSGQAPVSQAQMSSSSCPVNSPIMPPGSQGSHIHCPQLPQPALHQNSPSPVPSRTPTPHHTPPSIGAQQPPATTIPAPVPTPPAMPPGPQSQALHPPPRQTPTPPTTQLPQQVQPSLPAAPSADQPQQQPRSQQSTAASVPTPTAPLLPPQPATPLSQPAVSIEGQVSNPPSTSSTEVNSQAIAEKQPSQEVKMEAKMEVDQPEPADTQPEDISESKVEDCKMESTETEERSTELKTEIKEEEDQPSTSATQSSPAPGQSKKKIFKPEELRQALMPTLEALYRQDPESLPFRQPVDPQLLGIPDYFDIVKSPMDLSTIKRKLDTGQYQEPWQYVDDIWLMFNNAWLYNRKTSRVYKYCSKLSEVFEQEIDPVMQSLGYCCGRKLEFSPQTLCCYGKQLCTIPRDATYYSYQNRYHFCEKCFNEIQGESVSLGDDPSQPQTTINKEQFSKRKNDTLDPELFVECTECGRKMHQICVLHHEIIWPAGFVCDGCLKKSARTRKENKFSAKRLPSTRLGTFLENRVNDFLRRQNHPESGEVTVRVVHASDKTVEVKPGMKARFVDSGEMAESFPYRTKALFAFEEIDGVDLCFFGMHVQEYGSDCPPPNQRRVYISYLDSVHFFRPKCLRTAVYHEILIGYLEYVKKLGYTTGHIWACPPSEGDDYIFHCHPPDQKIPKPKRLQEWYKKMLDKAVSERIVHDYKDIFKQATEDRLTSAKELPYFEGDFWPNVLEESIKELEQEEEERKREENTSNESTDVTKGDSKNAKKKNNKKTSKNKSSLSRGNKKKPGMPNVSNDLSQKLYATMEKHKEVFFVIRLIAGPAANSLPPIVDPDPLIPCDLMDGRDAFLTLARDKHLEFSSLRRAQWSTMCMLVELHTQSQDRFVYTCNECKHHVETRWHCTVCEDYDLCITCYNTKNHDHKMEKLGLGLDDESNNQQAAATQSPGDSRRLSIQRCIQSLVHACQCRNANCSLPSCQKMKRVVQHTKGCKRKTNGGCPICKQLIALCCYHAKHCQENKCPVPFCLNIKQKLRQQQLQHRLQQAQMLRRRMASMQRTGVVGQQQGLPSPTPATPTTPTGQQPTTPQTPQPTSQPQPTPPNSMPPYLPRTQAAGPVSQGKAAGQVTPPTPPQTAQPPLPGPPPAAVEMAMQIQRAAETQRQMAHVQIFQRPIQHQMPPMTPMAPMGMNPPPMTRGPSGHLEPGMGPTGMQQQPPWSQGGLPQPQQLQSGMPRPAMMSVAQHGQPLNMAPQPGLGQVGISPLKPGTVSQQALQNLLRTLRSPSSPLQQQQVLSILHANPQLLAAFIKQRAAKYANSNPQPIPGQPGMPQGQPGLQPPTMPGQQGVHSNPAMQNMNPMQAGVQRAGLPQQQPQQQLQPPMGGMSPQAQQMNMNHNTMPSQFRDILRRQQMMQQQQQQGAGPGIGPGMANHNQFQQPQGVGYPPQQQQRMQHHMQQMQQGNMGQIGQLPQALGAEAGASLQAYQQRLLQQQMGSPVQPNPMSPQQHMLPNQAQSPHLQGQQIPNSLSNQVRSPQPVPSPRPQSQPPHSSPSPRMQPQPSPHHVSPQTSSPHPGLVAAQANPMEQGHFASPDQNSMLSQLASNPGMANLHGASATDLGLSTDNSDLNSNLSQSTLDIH
UniProt Q8N6T7: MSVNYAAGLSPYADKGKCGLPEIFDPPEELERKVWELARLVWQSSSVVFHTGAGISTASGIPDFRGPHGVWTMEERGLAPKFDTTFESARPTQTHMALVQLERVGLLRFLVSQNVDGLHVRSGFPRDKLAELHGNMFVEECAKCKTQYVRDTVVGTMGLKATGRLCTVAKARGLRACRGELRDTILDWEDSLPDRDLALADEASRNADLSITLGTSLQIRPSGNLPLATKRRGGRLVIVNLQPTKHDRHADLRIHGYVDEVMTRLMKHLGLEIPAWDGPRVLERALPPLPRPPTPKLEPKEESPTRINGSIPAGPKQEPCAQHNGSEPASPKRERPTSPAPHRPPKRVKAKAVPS
UniProt Q96EB6: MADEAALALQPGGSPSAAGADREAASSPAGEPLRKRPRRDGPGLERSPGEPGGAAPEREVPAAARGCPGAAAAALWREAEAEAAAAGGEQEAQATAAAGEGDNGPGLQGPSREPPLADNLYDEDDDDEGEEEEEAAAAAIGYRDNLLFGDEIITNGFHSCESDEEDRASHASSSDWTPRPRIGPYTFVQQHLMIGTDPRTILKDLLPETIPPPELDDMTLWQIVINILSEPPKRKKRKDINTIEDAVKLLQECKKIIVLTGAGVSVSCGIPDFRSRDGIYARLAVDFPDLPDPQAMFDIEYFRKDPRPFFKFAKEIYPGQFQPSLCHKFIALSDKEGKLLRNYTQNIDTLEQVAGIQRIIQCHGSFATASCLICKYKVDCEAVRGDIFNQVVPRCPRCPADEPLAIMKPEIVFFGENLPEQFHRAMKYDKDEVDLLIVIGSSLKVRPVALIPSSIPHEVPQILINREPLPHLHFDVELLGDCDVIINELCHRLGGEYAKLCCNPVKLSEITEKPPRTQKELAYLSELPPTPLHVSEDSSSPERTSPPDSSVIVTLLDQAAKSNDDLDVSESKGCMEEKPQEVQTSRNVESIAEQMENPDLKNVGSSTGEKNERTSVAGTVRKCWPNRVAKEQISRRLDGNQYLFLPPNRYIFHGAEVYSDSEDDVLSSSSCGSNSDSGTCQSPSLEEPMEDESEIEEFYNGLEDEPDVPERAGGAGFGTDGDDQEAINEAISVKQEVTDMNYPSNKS
UniProt Q9NXA8, residues 37-310: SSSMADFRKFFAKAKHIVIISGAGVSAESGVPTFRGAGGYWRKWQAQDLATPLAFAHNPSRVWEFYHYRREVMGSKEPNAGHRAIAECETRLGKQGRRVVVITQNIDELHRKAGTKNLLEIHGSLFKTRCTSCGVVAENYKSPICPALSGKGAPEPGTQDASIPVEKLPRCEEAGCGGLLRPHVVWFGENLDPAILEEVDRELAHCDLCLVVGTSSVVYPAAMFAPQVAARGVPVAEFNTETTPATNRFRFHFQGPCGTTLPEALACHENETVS
UniProt Q9NRC8: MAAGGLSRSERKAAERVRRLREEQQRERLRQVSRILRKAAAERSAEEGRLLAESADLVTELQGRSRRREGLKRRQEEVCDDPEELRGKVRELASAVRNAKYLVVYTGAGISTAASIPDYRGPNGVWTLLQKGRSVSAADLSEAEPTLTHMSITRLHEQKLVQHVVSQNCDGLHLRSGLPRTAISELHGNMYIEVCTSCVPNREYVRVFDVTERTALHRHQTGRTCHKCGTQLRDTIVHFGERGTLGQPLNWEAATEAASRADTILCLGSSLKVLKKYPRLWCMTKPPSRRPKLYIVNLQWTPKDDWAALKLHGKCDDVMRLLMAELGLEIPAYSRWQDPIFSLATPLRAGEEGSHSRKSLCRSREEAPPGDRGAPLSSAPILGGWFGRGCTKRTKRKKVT
UniProt P35222: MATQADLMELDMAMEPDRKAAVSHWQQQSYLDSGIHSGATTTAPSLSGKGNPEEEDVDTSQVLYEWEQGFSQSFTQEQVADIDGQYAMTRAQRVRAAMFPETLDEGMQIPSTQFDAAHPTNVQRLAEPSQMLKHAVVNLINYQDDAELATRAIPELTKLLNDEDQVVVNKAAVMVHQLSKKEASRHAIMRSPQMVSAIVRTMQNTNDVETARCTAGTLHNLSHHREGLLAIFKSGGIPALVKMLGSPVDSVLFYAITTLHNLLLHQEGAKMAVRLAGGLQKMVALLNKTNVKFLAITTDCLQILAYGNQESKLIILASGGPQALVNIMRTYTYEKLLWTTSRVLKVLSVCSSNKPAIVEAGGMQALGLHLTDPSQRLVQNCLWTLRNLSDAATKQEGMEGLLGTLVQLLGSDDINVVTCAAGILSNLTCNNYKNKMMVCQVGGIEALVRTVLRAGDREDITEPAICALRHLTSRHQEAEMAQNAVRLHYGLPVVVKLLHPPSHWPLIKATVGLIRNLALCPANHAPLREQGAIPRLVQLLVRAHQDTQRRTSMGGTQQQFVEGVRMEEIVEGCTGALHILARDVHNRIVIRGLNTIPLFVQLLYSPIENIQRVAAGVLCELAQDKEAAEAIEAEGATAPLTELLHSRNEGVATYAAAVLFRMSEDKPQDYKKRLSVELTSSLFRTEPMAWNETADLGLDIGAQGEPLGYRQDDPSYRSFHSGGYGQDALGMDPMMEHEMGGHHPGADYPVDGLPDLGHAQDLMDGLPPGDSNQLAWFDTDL
UniProt P40763: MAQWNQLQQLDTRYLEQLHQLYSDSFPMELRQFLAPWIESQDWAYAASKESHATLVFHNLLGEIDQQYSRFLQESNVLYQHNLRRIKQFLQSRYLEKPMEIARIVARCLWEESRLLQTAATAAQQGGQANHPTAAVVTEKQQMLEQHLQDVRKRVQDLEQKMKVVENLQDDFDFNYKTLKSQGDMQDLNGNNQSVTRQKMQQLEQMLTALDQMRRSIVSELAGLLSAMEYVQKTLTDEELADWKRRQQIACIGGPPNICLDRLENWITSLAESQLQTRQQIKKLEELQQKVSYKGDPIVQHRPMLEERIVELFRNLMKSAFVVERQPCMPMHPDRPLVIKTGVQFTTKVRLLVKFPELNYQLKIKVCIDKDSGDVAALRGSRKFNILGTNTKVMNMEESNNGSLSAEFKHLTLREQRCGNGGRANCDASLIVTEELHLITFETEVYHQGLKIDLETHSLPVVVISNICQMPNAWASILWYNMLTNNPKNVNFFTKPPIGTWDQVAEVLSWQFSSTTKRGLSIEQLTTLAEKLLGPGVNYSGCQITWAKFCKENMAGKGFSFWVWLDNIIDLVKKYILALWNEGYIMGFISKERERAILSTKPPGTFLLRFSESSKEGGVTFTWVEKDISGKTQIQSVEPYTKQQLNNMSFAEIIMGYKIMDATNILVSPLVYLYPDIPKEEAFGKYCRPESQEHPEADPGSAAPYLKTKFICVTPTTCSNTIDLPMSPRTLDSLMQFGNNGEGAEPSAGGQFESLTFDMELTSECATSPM

Test [1] deals with p300 (endogenous) (human (endogenous in T47D and MCF7)) (UniProt Q09472). As to the kind of experiment: co-IP; endogenous proteins, T47D whole-cell lysate in TNE lysis buffer; antibody (anti-p300, anti-ELF5 or anti-SIRT6) or normal IgG overnight at 4 °C, Protein A/G magnetic beads; immunoblot.
A further test deals with T1, GFP-tagged ELF5 (UniProt Q9UKW6).
T1 sequence: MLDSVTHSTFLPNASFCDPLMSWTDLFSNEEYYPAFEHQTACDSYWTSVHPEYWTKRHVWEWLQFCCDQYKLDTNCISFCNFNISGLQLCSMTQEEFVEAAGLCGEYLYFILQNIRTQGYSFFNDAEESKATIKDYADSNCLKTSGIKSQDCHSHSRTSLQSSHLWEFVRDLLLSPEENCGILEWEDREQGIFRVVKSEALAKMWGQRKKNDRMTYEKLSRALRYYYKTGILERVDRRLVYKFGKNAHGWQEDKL
Description: co-IP; HEK293T co-transfected with GFP-tagged ELF5 and HA-tagged p300; precipitation with anti-GFP or anti-HA antibody; immunoblot.

The next test concerns the target T2, GST-ELF5 fusion protein (UniProt Q9UKW6).
T2 sequence: T1 sequence
Description: pull-down; purified GST or GST-ELF5 immobilised on the Pierce Spin Column, incubated with lysate of HEK293T cells overexpressing p300 or SIRT6; only the target purified.

Test [2] deals with T3, Flag-Myc-ELF5 (isoform 2) (UniProt Q9UKW6).
T3 sequence: T1 sequence
As to the kind of experiment: co-IP; HEK293T co-transfected with tagged ELF5 and tagged sirtuins; precipitation with anti-Flag affinity gel; immunoblot.

The target in test [3] is T4, E74-like ETS transcription factor 5 (ELF5), endogenous (human (endogenous in T47D and MCF7)) (UniProt Q9UKW6).
T4 sequence: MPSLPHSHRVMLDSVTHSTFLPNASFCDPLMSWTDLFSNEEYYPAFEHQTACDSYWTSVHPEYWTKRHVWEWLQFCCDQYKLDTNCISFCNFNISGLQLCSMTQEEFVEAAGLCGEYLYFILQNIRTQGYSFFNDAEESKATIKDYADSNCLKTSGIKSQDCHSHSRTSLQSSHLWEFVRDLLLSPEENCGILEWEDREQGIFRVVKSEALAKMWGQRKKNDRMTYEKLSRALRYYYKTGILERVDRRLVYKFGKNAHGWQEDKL
Description: co-IP; endogenous proteins, T47D whole-cell lysate in TNE lysis buffer; antibody (anti-p300, anti-ELF5 or anti-SIRT6) or normal IgG overnight at 4 °C, Protein A/G magnetic beads; immunoblot.

Test [4] has as its target SIRT6 (endogenous) (human (endogenous in T47D)) (UniProt Q8N6T7). The test is described as above.
Test [5] addresses p300 (endogenous) (human (endogenous in T47D and MCF7)) (UniProt Q09472). Described as above. The source holds these as a separate data set.
The next test deals with Flag-SIRT1 (UniProt Q96EB6). As to the kind of experiment: co-IP; HEK293T co-transfected with tagged ELF5 and tagged sirtuins; precipitation with anti-Flag affinity gel; immunoblot.
Another test deals with T5, Flag-SIRT2 (UniProt Q8IXJ6).
T5 sequence: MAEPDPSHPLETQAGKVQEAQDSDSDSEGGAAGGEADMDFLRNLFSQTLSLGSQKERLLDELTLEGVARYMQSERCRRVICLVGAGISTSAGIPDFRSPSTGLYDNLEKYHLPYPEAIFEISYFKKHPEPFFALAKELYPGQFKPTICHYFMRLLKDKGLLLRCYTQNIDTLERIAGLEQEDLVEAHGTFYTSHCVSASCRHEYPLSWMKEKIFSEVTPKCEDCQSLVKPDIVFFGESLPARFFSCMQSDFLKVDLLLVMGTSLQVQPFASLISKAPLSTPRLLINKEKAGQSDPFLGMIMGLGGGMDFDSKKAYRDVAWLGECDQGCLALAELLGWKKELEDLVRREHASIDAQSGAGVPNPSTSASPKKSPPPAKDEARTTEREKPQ
The test is described as above.

The target in the next test is T6, Flag-SIRT4 (UniProt Q9Y6E7).
T6 sequence: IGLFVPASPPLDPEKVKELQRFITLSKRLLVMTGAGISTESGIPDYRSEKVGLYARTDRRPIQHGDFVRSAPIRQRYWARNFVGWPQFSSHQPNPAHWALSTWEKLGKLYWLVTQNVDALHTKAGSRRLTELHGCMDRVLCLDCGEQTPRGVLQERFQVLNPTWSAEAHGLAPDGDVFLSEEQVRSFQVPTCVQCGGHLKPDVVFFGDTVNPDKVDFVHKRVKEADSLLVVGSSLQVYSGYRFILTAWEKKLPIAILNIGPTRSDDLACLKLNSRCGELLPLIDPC
Described as above.

The target of a further test is Flag-SIRT5 (UniProt Q9NXA8). The test is described as above.
The next test has as its target Flag-SIRT6 (UniProt Q8N6T7). The test is described as above.
Another test addresses Flag-SIRT7 (UniProt Q9NRC8). Described as above.
In a further test the target is HA-tagged p300 (UniProt Q09472). Description: co-IP; HEK293T co-transfected with GFP-tagged ELF5 and HA-tagged p300; precipitation with anti-GFP or anti-HA antibody; immunoblot.

Where two headings read alike, the source gives them in different places. Results are given in words; binding and its absence hold for the method and conditions named. Binding seen in cells or lysates may run through a third protein. Some results given as binding are weak or reduced against the parent protein; the word gives no strength. For part of these data: Tags and fused reporters may be left off the sequences shown.

For “β-catenin (endogenous) (from UniProt P35222 1-781)”, the binding result in [1] is “binds”.
As to “HA-tagged p300 (from UniProt Q09472 1-2414) (enzyme)”, the binding result with GFP-tagged ELF5 and with GST-ELF5 fusion protein was “binds” throughout.
Turning to “GFP-SIRT6 catalytic mutant H133Y (from UniProt Q8N6T7 1-355) (enzyme)”, the binding entry in test [2] is “no binding”.
As for “p300 (endogenous) (from UniProt Q09472 1-2414) (enzyme)”, the binding entry in test [3] is “binds”.
With “GFP-SIRT6 (from UniProt Q8N6T7 1-355) (enzyme)”, the binding result (in test [2]; with GST-ELF5 fusion protein) was “binds” throughout.
As to “STAT3 (endogenous) (from UniProt P40763 1-770)”, the binding result in test [1] is recorded as “binds”.
Turning to “SIRT6 (endogenous) (from UniProt Q8N6T7 1-355) (enzyme)”, in test [3], the binding entry is “binds”.

B1: E74-like ETS transcription factor 5 (ELF5), endogenous (protein, UniProt Q9UKW6 1-265)
chain: T4 sequence
B1: the binding result in test [4] and in test [5] was “binds” in each case.

B2: HA-tagged ELF5 (protein, UniProt Q9UKW6-2 1-255)
chain: T1 sequence
Regarding B2, the binding result is “no binding” with Flag-SIRT1; “no binding” in the test with Flag-SIRT2; “no binding” in the test with Flag-SIRT4; “no binding” in the test with Flag-SIRT5; “binds” in the test with Flag-SIRT6; “no binding” in the test with Flag-SIRT7.

B3: GFP-tagged ELF5 (protein, UniProt Q9UKW6-2 1-255)
chain: T1 sequence
With B3, the binding entry in the test with HA-tagged p300 is on record as “binds”.
